Test results as given in PubChem BioAssay AID651820 (National Center for Advancing Translational Sciences (NCATS), 2012).
Hit rate of the full screen: of about 340,000 compounds, about 12,000 (3.5%) were called active. Inconclusive results, whose numbers are uncertain, are shown with a selection of clear calls. Calls follow the shape of the dose curve; as a rule, active = well fitted inhibition curve with a large enough effect; inconclusive = small, poorly fitted or top-dose-only effect, or another doubt; inactive = no such curve, though single readings can be large or run the other way. No potency is given beside an inconclusive call; the fits are too rough.

Test: qHTS Assay for Inhibitors of Hepatitis C Virus (HCV)
Conditions: Huh7.5.1 HCVcc-Cre (HCVcc is cell-culture hepatitis C virus) infection, luciferase reporter, 44 h; activity change, negative = inhibition: at 41.8 µM (top of the series) unless noted
Outline: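 Cells (1,000/well) were plated 4 h before compound, then infected with HCVcc-Cre virus (~0.5 moi). After 44 h further culture, infection was read as luciferase luminescence following a 15 min substrate incubation at room temperature.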
% is scaled to controls: 0 for no effect and ±100 for the full control effect; potency is read from the fitted curve at half-maximal effect; tags tell the direction and shape of the fitted curve.

Row | SMILES | Potency | activity change, negative = inhibition
1 | COc1ccc(C(=O)Nc2ccc(NC(=O)c3ccco3)c(Cl)c2)cc1OC | inconclusive [inhibitor, full curve, poor fit] | –
2 | Cc1c(C(=O)Nc2cnccn2)oc2ccccc12 | inconclusive [inhibitor, single point] | –
3 | O=C(N/N=C/c1ccc2c(c1)OCO2)c1sc2cccc(Cl)c2c1Cl | inconclusive [inhibitor, single point] | –
4 | Cc1ccc(C)c(NC(=O)CN(C)C(=O)CN2C(=O)C3CCCCC3C2=O)c1 (stereo not drawn) | inactive | –
5 | Cc1ccccc1Cn1ccc(NC(=O)c2cnn3c2NC(c2ccccc2)CC3C(F)(F)F)n1 (stereo not drawn) | inconclusive [inhibitor, single point] | –
6 | CC(=O)CSc1nc(N)c(C#N)c(-c2cccs2)c1C#N | inconclusive [inhibitor, full curve, poor fit] | –
7 | O=C1N[C@@H](c2ccccc2)COC(=O)[C@@H](Cc2ccc(F)cc2)CC/C=C/C[C@@H]1CC(=O)N(CCO)Cc1ccccc1 | inconclusive [inhibitor, single point] | –
8 | CCN1CCN(CCCOc2ccc(Cl)cc2Br)CC1 | inconclusive [inhibitor, partial curve] | –
9 | Nc1nc(NCCCN2CCOCC2)nc(Nc2cccc(F)c2)c1[N+](=O)[O-] | inactive | –
10 | CC1Cc2ccccc2N1C(=O)Cn1nnc(-c2ccccc2NC(=O)C2CCC2)n1 (stereo not drawn) | inconclusive [inhibitor, partial curve] | –
11 | COc1ccccc1CNC(=O)c1ccc(SC)cc1OC | inconclusive [inhibitor, partial curve] | –
12 | COc1cc(C(=O)Sc2ccc(Cl)cc2)cc(OC)c1OC | inconclusive [inhibitor, single point] | –
13 | COc1ccc(Nc2nc(N)c([N+](=O)[O-])c(N3CCCC3)n2)cc1 | inconclusive [inhibitor, single point] | –
14 | O=C(NCc1ccc2c(c1)OCO2)C(=O)NCC1OCCN1S(=O)(=O)c1ccc(Br)cc1 (stereo not drawn) | active: 10 µM | –
15 | CC1CCN(C(=O)C2CCC(=O)N(Cc3ccc(Cl)cc3)C2)CC1 (stereo not drawn) | inactive | –
16 | COC(=O)c1cc2c(ccn2-c2ccc(F)cc2)n1CC(=O)C(C)(C)C | inconclusive [inhibitor, partial curve] | –
17 | O=C(OCc1ccccc1)c1ccc(NCc2cc(O)ccc2O)cc1 | active: 5.01 µM | –
18 | N#Cc1ccc(Oc2ccc(S(=O)(=O)N3CCCC3)cn2)cc1 | inconclusive [inhibitor, partial curve] | –
19 | CC(=O)c1ccc(N2CCN(S(=O)(=O)c3cn(C)c(C)n3)CC2)cc1 | inactive | –
20 | O=C(CC(SCc1ccco1)c1ccc(O)cc1)c1cccs1 (stereo not drawn) | inactive | –
21 | CC1=Nc2cc(C(=O)O)ccc2Sc2ccc(Br)cc21 | – | inactive: 4.14% [at 8.37 µM]
22 | COC(=O)c1ccc(OS(=O)(=O)N(C)C)cc1 | inactive | –
23 | O=C(CCNC(=O)C1CCN(S(=O)(=O)c2ccccc2)CC1)NCc1ccccc1Cl | inactive | –
24 | COc1ccc(CCN2C(=O)CSC2=Nc2ccc(C)cc2C)cc1OC | inconclusive [inhibitor, partial curve] | –
25 | COc1cc2c(-c3ccccc3)c(C)oc2cc1/C=N/NC(N)=S | inconclusive [inhibitor, full curve, poor fit] | –

Row | SMILES | Potency | activity change, negative = inhibition
26 | O=C(NCc1ccco1)c1cnn2c(C(F)(F)F)cc(-c3ccccc3)nc12 | inconclusive [inhibitor, full curve] | –
27 | CC(=O)NC12CC3CC(C1)CC(C(=O)Nc1nc4ccc(F)cc4s1)(C3)C2 | inconclusive [inhibitor, single point] | –
28 | CCN(CC)c1ccc(/C=N\N2CCN(Cc3ccc(C)cc3)CC2)cc1 | inactive | –
29 | CCOc1ccc(Br)cc1C1=NN(C(C)=O)C(c2ccc([N+](=O)[O-])s2)O1 (stereo not drawn) | inconclusive [inhibitor, single point] | –
30 | CCn1c(CSc2nc3ccccc3s2)nnc1SCC(=O)OC(C)(C)C | inconclusive [inhibitor, single point] | –
31 | CCn1c2ccccc2c2cc(NC(=O)c3ccc(C)c([N+](=O)[O-])c3)ccc21 | inconclusive [inhibitor, single point] | –
32 | Cc1csc(NC(=O)CSc2ccc(-c3ccccn3)nn2)n1 | inactive | –
33 | COc1cc2[nH]c3c(OC)ncnc3c2cc1OC | inactive | –
34 | CCOC(=O)c1c(C)[nH]c(C(=O)COC(=O)/C=C/c2ccc(OC(F)F)cc2)c1C | inactive | –
35 | O=C(c1ccc2c(c1)N(Cc1ccccc1F)C(=O)c1ccccc1S2(=O)=O)N1CCCC1 | inconclusive [inhibitor, single point] | –
36 | COc1ccc(NC(=O)CN(C)C(=O)c2cc(-c3cccs3)nn2-c2ccccc2)cc1 | inconclusive [inhibitor, partial curve] | –
37 | CC1(C)SC(=S)N(NC(=O)Nc2cccc3ccccc23)C1N(O)C(=O)Nc1ccccc1 (stereo not drawn) | inconclusive [inhibitor, single point] | –
38 | COc1ccc2[nH]c(C(=O)N/N=C/c3ccc(O)cc3O)cc2c1 | inconclusive [inhibitor, full curve] | –
39 | CN(C)S(=O)(=O)c1cccc(-c2csc(N/N=C/c3ccco3)n2)c1 | inconclusive [inhibitor, single point] | –
40 | CCn1c(C)c(C(C)=O)c(N2CCN(c3ccccc3)CC2)nc1=S | inactive | –
41 | CCCC(CCC)C(=O)Nc1ccc2c(c1)N(C(=O)CCN1CCN(C)CC1)c1ccccc1CC2 | inconclusive [inhibitor, single point] | –
42 | O=C(C1CC(=O)N(c2ccc(Cl)cc2)C1)N1CCN(Cc2ccc3c(c2)OCO3)CC1 (stereo not drawn) | inconclusive [inhibitor, single point] | –
43 | CN1CCN(S(=O)(=O)c2ccc(SCCOc3ccc(Cl)cc3)nc2)CC1 | inconclusive [inhibitor, single point] | –
44 | CC(C)C(C(=O)Nc1nccs1)c1ccc(Cl)cc1 (stereo not drawn) | inconclusive [inhibitor, single point] | –
45 | O=c1c2c3n(c(=S)nc2[nH]n1-c1ccccc1)CCCCC3 | inactive | –
46 | COc1ccc(-n2cnnc2SCC(=O)c2cc(C)n(Cc3cccs3)c2C)cc1 | inconclusive [inhibitor, single point] | –
47 | CC(C)Cn1[nH]c2c3c(ccc2c1=O)C(=O)c1ccccc1C3=O | active: 11.2 µM | –
48 | Cc1cccc(Nc2nc(C)cc(C)n2)c1 | inactive | –
49 | CNCc1c(OCc2ccccc2F)ccc2ccccc12 | active: 8.91 µM | –
50 | CCn1c(CNc2ccc(Cl)cc2)nnc1SCc1ccc(Cl)cc1 | inconclusive [inhibitor, single point] | –

Row | SMILES | Potency | activity change, negative = inhibition
51 | Cc1cc(Br)ccc1NC(=O)c1cnc(N2CCN(c3ccccn3)CC2)c2ccccc12 | active: 2.51 µM | –
52 | Cc1ccc(-n2nnnc2-c2cnc(-c3cccnc3)nc2C(F)(F)F)cc1 | active: 10 µM | –
53 | COc1ccccc1CCNC(=O)CCn1nc(C)c2c(C)n(-c3ccccc3)nc2c1=O | inactive | –
54 | COc1ccc(N2CCN(CC(=O)Nc3ccccc3C(=O)NCc3ccccc3)CC2)cc1 | inconclusive [inhibitor, single point] | –
55 | CCN(CC)CCOc1ncnc2c1oc1ccccc12 | inactive | –
56 | Cc1ccc(O)c(-c2cc(-c3cccc(F)c3)n[nH]2)c1 | active: 10 µM | –
57 | CC(C)(C)c1ccc(OCCC(=O)NNC(=O)c2ccncc2)cc1 | inactive | –
58 | Cc1c(C(=O)N2CCC[C@H]2CO)oc2c(F)cccc12 | inactive | –
59 | Cc1cc(Cn2nc(C(=O)NCC3CC3)cc2-c2ccccc2)on1 | inactive | –
60 | CCC(C)(C)c1ccc(Oc2ccc(N)cc2)cc1 | active: 4.47 µM | –
61 | O=C(NCCc1cccc(Cl)c1)c1ccc(OC2CCN(Cc3ccccn3)CC2)cc1 | inconclusive [inhibitor, partial curve] | –
62 | CC(C)Cn1cnc2c(Sc3c([N+](=O)[O-])ncn3C)nc(N)nc21 | inactive | –
63 | O=C(c1ccco1)N1CCN(C(c2ccc(F)cc2)c2nnnn2Cc2cccs2)CC1 (stereo not drawn) | inactive | –
64 | COc1ccc(C(=O)N(Cc2ccccc2)Cc2cc3cc4c(cc3[nH]c2=O)OCCO4)cc1 | inconclusive [inhibitor, single point] | –
65 | CCOc1cc(/C=N\Nc2nc(-c3ccc(C)cc3)c(NC(C)=O)s2)ccc1O | inconclusive [inhibitor, single point] | –
66 | O=C(NCCN1CCOCC1)c1ccncc1 | inactive | –
67 | O=C(/C=C/c1ccco1)Nc1ccc(Cl)c(S(=O)(=O)N2CCOCC2)c1 | active: 10 µM | –
68 | N#Cc1nc(Cc2cccc3ccccc23)oc1NCCCn1ccnc1 | inconclusive [inhibitor, single point] | –
69 | Cc1ccc(NC(=S)NCc2ccco2)c(C)c1 | inactive | –
70 | CCOc1ccc(C(=O)NC(=S)NCCCN2CCOCC2)cc1 | inconclusive [inhibitor, single point] | –
71 | O=C(O)c1ccc(S(=O)(=O)/N=C2\C=C(Nc3ccccc3F)C(=O)c3ccccc32)cc1 | active: 10 µM | –
72 | Cc1ccc(-n2[nH]c(C)c(C=Nc3ccc4[nH]c(=O)[nH]c4c3)c2=O)cc1C | inconclusive [inhibitor, single point] | –
73 | COc1cc(OC)cc(C(=O)NC2CCN(C(=O)N3c4ccccc4Sc4ccccc43)CC2)c1 | inconclusive [inhibitor, partial curve] | –
